In paper PMC4336329 (PLoS ONE, 2015):
Out of some 310,000 compounds screened, about 14,000 (4.5%) showed an effect of 50% or more. The effect is printed as a negative number. The list shows a part of the results.

Target: human ether-à-go-go-related gene (hERG) potassium channel (human, UniProt Q12809)
Test: primary screen, population patch clamp on CHO cells stably expressing hERG
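Also: peak tail current of the secondary pulse compared with the same well before compound.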

Chain of human ether-à-go-go-related gene (hERG) potassium channel (Q12809 whole entry, looked up): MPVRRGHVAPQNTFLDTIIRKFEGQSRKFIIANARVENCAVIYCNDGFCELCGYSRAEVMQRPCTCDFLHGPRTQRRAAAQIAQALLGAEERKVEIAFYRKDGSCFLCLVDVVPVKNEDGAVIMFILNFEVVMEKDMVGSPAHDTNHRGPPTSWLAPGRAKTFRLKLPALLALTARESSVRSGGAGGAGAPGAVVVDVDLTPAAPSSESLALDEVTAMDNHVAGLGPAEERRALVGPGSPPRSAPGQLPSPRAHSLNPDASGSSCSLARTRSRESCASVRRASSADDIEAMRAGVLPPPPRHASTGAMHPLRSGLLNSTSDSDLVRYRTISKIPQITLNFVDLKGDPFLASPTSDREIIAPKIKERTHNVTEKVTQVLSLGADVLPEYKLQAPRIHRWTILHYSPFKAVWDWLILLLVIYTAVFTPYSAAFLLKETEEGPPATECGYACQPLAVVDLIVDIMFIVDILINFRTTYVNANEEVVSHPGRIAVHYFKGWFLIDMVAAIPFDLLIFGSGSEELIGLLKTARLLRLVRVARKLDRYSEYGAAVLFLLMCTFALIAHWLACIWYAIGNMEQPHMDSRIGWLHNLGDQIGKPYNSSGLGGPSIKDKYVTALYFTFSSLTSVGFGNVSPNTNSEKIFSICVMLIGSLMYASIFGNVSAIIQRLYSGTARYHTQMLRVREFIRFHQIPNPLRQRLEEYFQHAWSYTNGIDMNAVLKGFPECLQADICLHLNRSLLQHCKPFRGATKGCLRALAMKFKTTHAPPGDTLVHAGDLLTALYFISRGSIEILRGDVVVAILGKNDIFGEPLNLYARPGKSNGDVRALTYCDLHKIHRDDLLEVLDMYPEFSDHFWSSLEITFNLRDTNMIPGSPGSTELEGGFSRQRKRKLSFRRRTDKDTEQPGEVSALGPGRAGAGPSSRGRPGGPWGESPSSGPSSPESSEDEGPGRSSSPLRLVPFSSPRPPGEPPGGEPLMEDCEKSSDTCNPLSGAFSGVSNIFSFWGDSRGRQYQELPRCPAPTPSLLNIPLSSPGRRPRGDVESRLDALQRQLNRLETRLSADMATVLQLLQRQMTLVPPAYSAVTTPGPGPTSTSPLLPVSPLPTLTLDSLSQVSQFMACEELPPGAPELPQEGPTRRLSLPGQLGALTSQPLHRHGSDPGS

Compared with `CC1(CCc2ccccc2)NC(=O)N(CC(=O)Nc2ccc3c(c2)OCCO3)C1=O` (centres unmarked), `CCC(C)n1c(SCC(=O)NC(=O)Nc2ccc3c(c2)OCCO3)nc2ccccc2c1=O` (centres unmarked) is higher in “hERG current change (%, negative = inhibition) at 10uM” value: -0.56% for the first, 12.8% for the second.

Compared with `COc1ccc(OC)c(CCNC(=O)CN2C(=O)CC(C)(C)S(=O)(=O)c3ccccc32)c1`, `COc1ccc(CNC(=O)COC(=O)CNC(=O)c2sc3ccccc3c2Cl)cc1OC` is higher in “hERG current change (%, negative = inhibition) at 10uM” value: 3.69% for the first, 7.29% for the second.

Compared with `O=C(Nc1cccc2ncccc12)c1ccc([N+](=O)[O-])o1`, `O=C(NCc1ccccc1)c1ccc(CS(=O)(=O)c2ccc(Br)cc2)o1` is higher in “hERG current change (%, negative = inhibition) at 10uM” value: 0.646% for the first, 4.76% for the second.

First: CCN(CC)S(=O)(=O)c1ccc(NC(=O)COC(=O)c2ccc(-n3nc(C)cc3C)cc2)cc1
Second: CC(=O)c1ccc(NC(=S)NCCc2cccc(Cl)c2)cc1
The “hERG current change (%, negative = inhibition) at 10uM” value of the first is higher: -7.35% for the first, -7.63% for the second.

First: COc1ccc(C(=O)Oc2c(OC)cc(C(=S)N3CCOCC3)cc2OC)cc1OC
Second: COc1ccc(NC(=O)c2cc(C3CC3)on2)c(OC)c1
The “hERG current change (%, negative = inhibition) at 10uM” value of the first is higher: 11.3% for the first, -3.02% for the second.

Compared with `c1ccc2c(c1)NC1(CCCC1)n1c-2nc2ccccc21`, `O=C(NC1CCCC1)C1(c2ccccc2)CCN(S(=O)(=O)c2ccccc2)CC1` is higher in “hERG current change (%, negative = inhibition) at 10uM” value: -9.46% for the first, -6.14% for the second.

First: CS(=O)(=O)N(Cc1ccc(Cl)cc1)c1ccc(C(=O)N2CCN(c3ccccc3)CC2)cc1
Second: CC(C)c1onc(C(=O)N2CCN(c3ccccc3)CC2)c1[N+](=O)[O-]
The “hERG current change (%, negative = inhibition) at 10uM” value of the first is lower: -20.9% for the first, 14.1% for the second.

Compared with `COCCn1c(C)cc(C(=O)CSc2nc(C)c(C)c(C)n2)c1C`, `CCOC(=O)c1sc2c(c1C)c(=O)n(CCO)c(=O)n2Cc1ccccc1` is lower in “hERG current change (%, negative = inhibition) at 10uM” value: 8.6% for the first, 4.88% for the second.

Compared with `Clc1ncn(C23CC4CC(CC(C4)C2)C3)n1`, `CC1CC(C)CN(C(=O)CCc2nnc3ccc(N4CCCCC4)nn23)C1` (centres unmarked) is lower in “hERG current change (%, negative = inhibition) at 10uM” value: 1.57% for the first, -6.94% for the second.

First: COc1cccc(-n2c(COc3ccc(C)cc3)nnc2SCC(=O)O)c1
Second: COc1ccc(OCCn2cc(C=O)c3ccccc32)cc1
The “hERG current change (%, negative = inhibition) at 10uM” value of the first is higher: 12.1% for the first, -6.47% for the second.

First: Br.CC1CN(CC(=O)c2ccccc2Cl)CC(C)O1 (centres unmarked)
Second: CC(C)Nc1ncnc2c1cnn2Cc1ccccc1Cl
The “hERG current change (%, negative = inhibition) at 10uM” value of the first is higher: 15.1% for the first, 1.32% for the second.

Compared with `O=c1cc(-c2ccccc2)nc2nc(-c3ccco3)[nH]n12`, `CCn1c(-c2cc(-c3ccc(C)c(C)c3)nc3ccccc23)n[nH]c1=S` is higher in “hERG current change (%, negative = inhibition) at 10uM” value: 5.67% for the first, 20.5% for the second.

Going from `Cc1cc(NCCO)nc(N2CCOCC2)n1` to `Cn1c(CN2CCOCC2)nnc1SCC(=O)NCCc1ccccc1`, the “hERG current change (%, negative = inhibition) at 10uM” value falls from 12.7% to -3.2%.

Going from `CCCc1cc(-c2n[nH]c(=S)n2CC(C)C)cs1` to `Cc1n[nH]c(=S)n1-c1cccc(Cl)c1`, the “hERG current change (%, negative = inhibition) at 10uM” value rises from -0.0178% to 19.7%.

Compared with `O=C(O)CCC(=O)Nc1nc(-c2ccccc2)cs1`, `CCc1ccccc1NC(=O)Cn1nnc(-c2cccs2)n1` is higher in “hERG current change (%, negative = inhibition) at 10uM” value: 9.01% for the first, 10.9% for the second.

Compared with `COc1ccc(S(=O)(=O)N2CCNC(=O)CC2)cc1`, `O=C(NC(=S)Nc1ccc(S(=O)(=O)N2CCCC2)cc1)c1cccs1` is lower in “hERG current change (%, negative = inhibition) at 10uM” value: 9.9% for the first, -16.5% for the second.

Going from `Cn1cc(CNC(=O)c2ccc(OC3CCN(Cc4ccccn4)CC3)cc2)cn1` to `COc1ccc(C(=O)NC2CCSc3ccccc32)cc1` (centres unmarked), the “hERG current change (%, negative = inhibition) at 10uM” value falls from 17.8% to -3.66%.

First: COc1ccc2c(c1)[nH]c1c(C)nccc12.Cl
Second: Cc1cc2c(=O)oc(-c3ccc(Br)cc3)nc2s1
The “hERG current change (%, negative = inhibition) at 10uM” value of the first is lower: -28% for the first, 14.6% for the second.

Going from `CCOc1ccc(CN2CCN(Cc3nc(C(C)C)cs3)CC2CCO)cc1` (centres unmarked) to `CC(C)CCN1CCN(C/C=C/c2ccco2)CC1CCO` (centres unmarked), the “hERG current change (%, negative = inhibition) at 10uM” value rises from -82.2% to -57.1%.

First: CCCCN(C(=O)CCC(=O)Nc1cc(C)on1)C(C(=O)NC1CCCC1)c1cccc(OC)c1 (centres unmarked)
Second: Cc1ccc2c(c1)N(C(=O)CCC(=O)NCCCN1CCOCC1)CC(C)O2 (centres unmarked)
The “hERG current change (%, negative = inhibition) at 10uM” value of the first is higher: 12% for the first, -13.5% for the second.

Compared with `Cc1csc2ncc(C(=O)Nc3cccc(C(F)(F)F)c3)c(=O)n12`, `O=C(COC(=O)Cc1cccc(C(F)(F)F)c1)Nc1cccc2ccccc12` is higher in “hERG current change (%, negative = inhibition) at 10uM” value: -2.52% for the first, 18% for the second.

Going from `O=C(C[N+]12CCC(CC1)C(C(O)(c1ccccc1)c1ccccc1)C2)c1ccc(Br)cc1.[Br-]` (centres unmarked) to `COC(=O)N(NC(=O)C(O)(c1ccccc1)c1ccccc1)c1ccccc1`, the “hERG current change (%, negative = inhibition) at 10uM” value rises from -39% to 9.59%.

First: Cc1ccc(NC(=S)NCCc2cnc[nH]2)cc1C
Second: CCCc1cc(C(=O)NCc2cccnc2)no1
The “hERG current change (%, negative = inhibition) at 10uM” value of the first is lower: 7% for the first, 7.33% for the second.

First: O=C(Cn1cc(C(F)(F)F)ccc1=O)N/N=C/c1ccc(F)cc1
Second: Cc1ccc(CN2CCN(/N=C/c3ccc(C(=O)O)cc3)CC2)cc1
The “hERG current change (%, negative = inhibition) at 10uM” value of the first is lower: 4.57% for the first, 5.6% for the second.

Compared with `CCOC(=O)C1=C(C)N(Cc2ccccc2)C(=O)NC1c1ccccc1OS(=O)(=O)c1ccccc1[N+](=O)[O-]` (centres unmarked), `CCCNc1c(NS(=O)(=O)c2ccc(C)c(C)c2)c(=O)oc2ccccc12` is lower in “hERG current change (%, negative = inhibition) at 10uM” value: 9.07% for the first, -30.6% for the second.

First: COC(=O)c1c(NC(NC(=O)CC(C)C)C(Cl)(Cl)Cl)sc2c1CCC2 (centres unmarked)
Second: CC(=O)C(C)Oc1ccc2c3c(c(=O)oc2c1)CCCCC3 (centres unmarked)
The “hERG current change (%, negative = inhibition) at 10uM” value of the first is lower: 1.06% for the first, 2.1% for the second.

First: CSc1nc([O-])cc(=O)n1-c1ccc(F)cc1.[K+]
Second: CN(C)C(=O)CSc1nnc(-c2ccc(F)cc2)c2ccccc12
The “hERG current change (%, negative = inhibition) at 10uM” value of the first is higher: 2.86% for the first, -7.61% for the second.

Compared with `CC(=O)O[C@H]1CC[C@@]2(C)[C@@H](CC[C@@H]3[C@@H]2CC[C@]2(C)[C@@H](C(C)(C)O)C[C@@H]32)C1`, `Cc1ccc(S(=O)(=O)NC(C)(C)C)cc1C(=O)OC(C)C(=O)NC1CC1` (centres unmarked) is lower in “hERG current change (%, negative = inhibition) at 10uM” value: 9.09% for the first, 8.25% for the second.

Compared with `Cc1ccc(S(=O)(=O)NNC(=O)c2snnc2C)cc1`, `Cc1nc(-c2ccc(Cl)cc2)sc1C(=O)O` is higher in “hERG current change (%, negative = inhibition) at 10uM” value: -2.43% for the first, 18.4% for the second.

Going from `O=C(CSc1nnc(SCc2ccc(Cl)cc2)s1)N/N=C/c1ccc(Cl)cc1Cl` to `CC1(C)Cc2c(sc3c2c(=N)n(Cc2ccco2)c(=O)n3Cc2ccc(Cl)cc2)CO1`, the “hERG current change (%, negative = inhibition) at 10uM” value falls from 15.7% to -8.92%.

First: CN(C(=O)CSc1n[nH]c(-c2cccs2)n1)C1CCS(=O)(=O)C1 (centres unmarked)
Second: COc1ccc(-n2nnnc2SCC(=O)N2CCCC2=O)cc1
The “hERG current change (%, negative = inhibition) at 10uM” value of the first is higher: 10.1% for the first, -7.03% for the second.

Going from `COc1ccc(NC(=S)NC(=O)/C=C/c2ccco2)c(OC)c1` to `O=C(/C=C/c1ccco1)Nc1ccccc1C(=O)Nc1cccc(C(=O)O)c1`, the “hERG current change (%, negative = inhibition) at 10uM” value rises from 1.82% to 11.9%.

Compared with `COc1ccc(Cn2nc(C)n(N(C)c3ncc(C(F)(F)F)cc3Cl)c2=O)cc1`, `COc1cc(S(=O)(=O)NCc2ccc3c(c2)OCO3)ccc1Cl` is lower in “hERG current change (%, negative = inhibition) at 10uM” value: -2.55% for the first, -26.1% for the second.

Going from `O=c1[nH]c2cc3c(cc2cc1CN(Cc1ccco1)C(=S)NCC1CCCO1)OCCO3` (centres unmarked) to `Cc1ccc(-n2nc3c(c2NC(=O)c2ccco2)CS(=O)(=O)C3)cc1`, the “hERG current change (%, negative = inhibition) at 10uM” value falls from 2.8% to -25.7%.

Compared with `COC(=O)C(NC(=O)c1ccccc1)=C1C=C(C)OC(C)=C1`, `O=C(Nc1ccccn1)c1cccc(S(=O)(=O)N2CCOCC2)c1` is lower in “hERG current change (%, negative = inhibition) at 10uM” value: 15.8% for the first, -6.45% for the second.

Going from `COc1cccc(OCC(O)CN2C(C)CCCC2C)c1.Cl` (centres unmarked) to `CCCc1cc(=O)n2nc(N3CCC(C(=O)N4CCN(c5ccc(OC)cc5)CC4)CC3)sc2n1`, the “hERG current change (%, negative = inhibition) at 10uM” value falls from 10.8% to -29.6%.

Going from `CCC(C)[C@H](NC(=O)N1CC(=O)Nc2ccccc21)C(=O)N1CCC[C@H]1C(=O)O` (some centres unmarked) to `O=C(O)C1CSC(c2ccccc2)N1C(=O)c1ccco1` (centres unmarked), the “hERG current change (%, negative = inhibition) at 10uM” value rises from -2.12% to 14.7%.

First: Cc1sc2ncnc(N3CCN(S(=O)(=O)c4ccccc4)CC3)c2c1C
Second: CCNS(=O)(=O)c1cc(-c2nnc(OC)c3ccccc23)ccc1C
The “hERG current change (%, negative = inhibition) at 10uM” value of the first is higher: -18.6% for the first, -37.3% for the second.

Compared with `CCCCc1ccc(S(=O)(=O)NCCCN2CCCC2=O)cc1`, `O=C(CCc1ccc(S(=O)(=O)NC2CCCCC2)cc1)NCc1cccnc1` is lower in “hERG current change (%, negative = inhibition) at 10uM” value: -5.75% for the first, -6.66% for the second.

Going from `Cc1cc(/C=C2\C(=N)N3N=C(C(C)C)SC3=NC2=O)c(C)n1-c1ccccc1` to `CC(=O)C1=C(C)NC(SCSc2ccccc2)=C(C#N)C1c1cccnc1` (centres unmarked), the “hERG current change (%, negative = inhibition) at 10uM” value falls from 29.4% to -40.2%.

Going from `CCN(CC)C(=S)SCC(=O)Nc1ncc2c(n1)CC(C)(C)CC2=O` to `CCCC1CCc2[nH]nc(C(=O)NN)c2C1` (centres unmarked), the “hERG current change (%, negative = inhibition) at 10uM” value rises from -13.5% to 10.7%.

Going from `COc1ccc(N=Cc2cccc(C)c2O)cc1Cl` to `O=C(O)CCCNC(=O)/C(=C\C=C\c1ccccc1)NC(=O)c1ccccc1Cl`, the “hERG current change (%, negative = inhibition) at 10uM” value falls from -0.875% to -6.09%.

Compared with `C/C(CC(=O)NCc1ccco1)=N\NC(=O)CC#N`, `CS(=O)(=O)N(CC(=O)NCCSc1ccccn1)c1ccc(F)cc1` is higher in “hERG current change (%, negative = inhibition) at 10uM” value: 10.9% for the first, 33.1% for the second.

Going from `CN(C)CC(CCCCC(CN(C)C)C(=O)c1ccccc1)C(=O)c1ccccc1` (centres unmarked) to `O=S(=O)(NCc1cn2ccccc2n1)c1ccccc1F`, the “hERG current change (%, negative = inhibition) at 10uM” value falls from 9.78% to -6.23%.

With `CCOc1ccc(NC(=S)c2ccc3ccccc3n2)cc1` the “hERG current change (%, negative = inhibition) at 10uM” value was 8.39%.
